Some of the results follow.
B1: PhoQ; a variant is named by its letters at X, in order, P23837 (parent)
chain: MKKLLRLFFPLSLRVRFLLATAAVVLVLSLAYGMVALIGYSVSFDKTTFRLLRGESNLFYTLAKWENNKLHVELPENIDKQSPTMTLIYDENGQLLWAQRDVPWLMKMIQPDWLKSNGFHEIEADVNDTSLLLSGDHSIQQQLQEVREDDDDAEMTHSVAVNVYPATSRMPKLTIVVVDTIPVELKSSYMVWSWFIYVLSANLLLVIPLLWVAAWWSLRPIEALAKEVRELEEHNRELLNPATTRELTSLVRNLNRLLKSERERYDKYRTTLTDLTHSLKTPLXXLQXXLRSLRSEKMSVSDAEPVMLEQISRISQQIGYYLHRASMRGGTLLSRELHPVAPLLDNLTSALNKVYQRKGVNISLDISPEISFVGEQNDFVEVMGNVLDNACKYCLEFVEISARQTDEHLYIVVEDDGPGIPLSKREVIFDRGQRVDTLRPGQGVGLAVAREITEQYEGKIVAGESMLGGARMEVIFGRQHSAPKDE

Variants of: B1
Experiment: enrichment ratio after two sorts for PhoP signalling (ratio (wild type AVST 3.29)); higher = more functional
Details: with PhoP (E. coli)

Variant | enrichment ratio
SQNC | ≤ 0.25
LSHE | ≤ 0.25
DLRL | ≤ 0.25
YNEC | ≤ 0.25
EGNA | ≤ 0.25
RNYG | ≤ 0.25
RVVP | ≤ 0.25
ERTD | ≤ 0.25
RAYE | ≤ 0.25
QEYM | 24.7
MMYK | ≤ 0.25
MDWF | ≤ 0.25
PFHI | ≤ 0.25
SKEV | ≤ 0.25
IWPF | 0.394
RKRF | ≤ 0.25
GSRL | ≤ 0.25
PTKL | ≤ 0.25
AMMA | ≤ 0.25
SALK | 15.2
TDWC | ≤ 0.25
KTMC | ≤ 0.25
GYAF | ≤ 0.25
EFTM | ≤ 0.25
GTMV | 7.05

Variant | enrichment ratio
SKYN | ≤ 0.25
PTNA | ≤ 0.25
IYYT | ≤ 0.25
SAYW | ≤ 0.25
IYAP | ≤ 0.25
FRGF | ≤ 0.25
SDRF | ≤ 0.25
TWNF | ≤ 0.25
FIPW | ≤ 0.25
EFDL | ≤ 0.25
FTWI | ≤ 0.25
VEYK | ≤ 0.25
QNDY | ≤ 0.25
NIFA | ≤ 0.25
FCVH | ≤ 0.25
QCPY | ≤ 0.25
RFTI | ≤ 0.25
NFCN | ≤ 0.25
TRHI | ≤ 0.25
DCGY | ≤ 0.25
GCSI | 4.63
NSIW | ≤ 0.25
FDFV | ≤ 0.25
GLMT | ≤ 0.25
VKDQ | ≤ 0.25

Variant | enrichment ratio
RTCQ | ≤ 0.25
HHFK | ≤ 0.25
ADNT | ≤ 0.25
LPVG | ≤ 0.25
RFTV | ≤ 0.25
QLKV | ≤ 0.25
SMQF | ≤ 0.25
SETH | 15.6
PFET | ≤ 0.25
GAFH | ≤ 0.25
TMPN | ≤ 0.25
PFSE | ≤ 0.25
IDGR | ≤ 0.25
PRDH | ≤ 0.25
STII | 8.73
PGTN | ≤ 0.25
KTKP | ≤ 0.25
IVHV | ≤ 0.25
HNCL | ≤ 0.25
HYKT | ≤ 0.25
WARW | ≤ 0.25
KDRV | ≤ 0.25
TLHV | ≤ 0.25
RSRP | ≤ 0.25
GEGA | ≤ 0.25

Variant | enrichment ratio
RRWR | ≤ 0.25
NAHH | ≤ 0.25
IVTP | ≤ 0.25
RMNH | ≤ 0.25
HAFT | ≤ 0.25
QKFV | 5.12
HHTM | ≤ 0.25
HQEP | ≤ 0.25
RACT | ≤ 0.25
NYLW | ≤ 0.25
THCT | 10.5
GINW | ≤ 0.25
IYLD | ≤ 0.25
LIPS | ≤ 0.25
GSTM | 6.87
PFVK | ≤ 0.25
DTYG | ≤ 0.25
HEFG | ≤ 0.25
GQFV | ≤ 0.25
WLCG | ≤ 0.25
FDLY | ≤ 0.25
RFKD | ≤ 0.25
VMYY | ≤ 0.25
TEGG | 5.71
AWVP | ≤ 0.25

Variant | enrichment ratio
WGFE | ≤ 0.25
LRMH | ≤ 0.25
RESI | ≤ 0.25
WQCP | ≤ 0.25
SVNS | 0.619
IMNV | ≤ 0.25
FSYK | ≤ 0.25
KLDK | ≤ 0.25
HMVW | ≤ 0.25
CQST | 8.98
NGMR | ≤ 0.25
WTHV | ≤ 0.25
NGML | ≤ 0.25
ARGD | ≤ 0.25
KRIM | ≤ 0.25
GFHV | ≤ 0.25
FEIW | 1.43
DCCL | ≤ 0.25
NEMN | ≤ 0.25
SYIP | ≤ 0.25
IMVN | ≤ 0.25
QPTA | ≤ 0.25
TCDT | ≤ 0.25
KINC | ≤ 0.25
RRWD | ≤ 0.25

Variant | enrichment ratio
QACV | ≤ 0.25
GLWH | ≤ 0.25
IQTY | ≤ 0.25
LHFG | ≤ 0.25
WVMR | ≤ 0.25
YYAL | ≤ 0.25
TDGK | ≤ 0.25
LMLE | ≤ 0.25
YIFH | ≤ 0.25
LMTA | ≤ 0.25
QMYI | 2.84
PAIM | ≤ 0.25
GSFY | ≤ 0.25
FTKG | ≤ 0.25
AYEW | ≤ 0.25
YYHV | ≤ 0.25
SVLV | 3.5
KHWT | ≤ 0.25
HLSW | ≤ 0.25
RWQA | ≤ 0.25
VYPP | ≤ 0.25
NHQF | ≤ 0.25
QVTS | ≤ 0.25
TVYY | ≤ 0.25
RYQY | ≤ 0.25

Variant | enrichment ratio
KCIW | ≤ 0.25
FTLK | 0.303
QYRH | ≤ 0.25
DPCC | ≤ 0.25
ISQE | ≤ 0.25
QMQD | ≤ 0.25
RRVC | ≤ 0.25
RHMC | ≤ 0.25
LGNW | ≤ 0.25
APMF | ≤ 0.25
ASGI | 3.31
ASMI | 13.5
KGCH | ≤ 0.25
PYWA | ≤ 0.25
ETLS | ≤ 0.25
QPFE | ≤ 0.25
GQLR | ≤ 0.25
FFDT | ≤ 0.25
QVRH | ≤ 0.25
PKDK | ≤ 0.25
IRGC | ≤ 0.25
PTWE | ≤ 0.25
AQCW | 5.59
GLQI | ≤ 0.25
LNAA | ≤ 0.25

Variant | enrichment ratio
GVLQ | 6.13
GRTD | ≤ 0.25
ILDV | ≤ 0.25
SESA | 8.46
GSAL | 6.5
QFGT | ≤ 0.25
SLIS | ≤ 0.25
WERK | ≤ 0.25
NLNG | ≤ 0.25
NEPA | ≤ 0.25
RWYQ | ≤ 0.25
RTAR | ≤ 0.25
TVYE | ≤ 0.25
IKEY | ≤ 0.25
RLGS | ≤ 0.25
LWVQ | ≤ 0.25
SCKI | ≤ 0.25
YCNP | ≤ 0.25
INKT | ≤ 0.25
TMKF | ≤ 0.25

Reference: a collection of fitness landscapes (doi:10.1126/science.1257360)
